# Measurements as given in PubChem BioAssay AID1461 (National Center for Advancing Translational Sciences (NCATS), 2008).
# Screen size: about 220,000 compounds; about 2,300 (1%) were called active. The inconclusive results got no clear call from the source; some entries with a clear call stand among them for comparison. Calls follow the shape of the dose curve; as a rule, active = well fitted inhibition curve with a large enough effect; inconclusive = small, poorly fitted or top-dose-only effect, or effect the other way; inactive = no such curve, though single readings can be large or run the other way. Potencies of inconclusive entries are doubtful fits and often do not repeat.
# Biological target: Neuropeptide S receptor (Homo sapiens) (UniProt Q6W5P4)
# Experiment: qHTS Assay for Antagonists of the Neuropeptide S Receptor: cAMP Signal Transduction; also: nearly all actives have a fitted effect of over 50% in size
# Conditions: CHO-NPSR cells, cAMP TR-FRET, antagonist mode; activity change, negative = inhibition: at 38.3 µM (top of the series) unless noted
# % is scaled to controls: 0 for no effect and ±100 for the full control effect; potency is read from the fitted curve at half-maximal effect; tags tell the direction and shape of the fitted curve.
# Chain of UniProt Q6W5P4 (Q6W5P4 whole entry, looked up): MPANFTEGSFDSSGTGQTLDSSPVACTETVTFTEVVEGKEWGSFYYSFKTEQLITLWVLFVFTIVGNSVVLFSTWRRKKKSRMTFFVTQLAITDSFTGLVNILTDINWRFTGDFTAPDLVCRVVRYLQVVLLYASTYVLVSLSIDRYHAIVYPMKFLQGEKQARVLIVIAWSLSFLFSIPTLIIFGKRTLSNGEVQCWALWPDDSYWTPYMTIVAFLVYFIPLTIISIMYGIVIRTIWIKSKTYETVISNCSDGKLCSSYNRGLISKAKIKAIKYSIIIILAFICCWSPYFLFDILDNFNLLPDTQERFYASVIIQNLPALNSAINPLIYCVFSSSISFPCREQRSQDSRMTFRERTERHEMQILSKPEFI
Structure (SMILES),Potency,"activity change, negative = inhibition"
O=S(=O)(Nc1cccc(Cl)c1)c1ccc2oc(=S)[nH]c2c1,inactive,–
COc1ccc(CNC(=O)c2cc(-c3cccs3)on2)cc1,inactive,–
Cc1cc2nc(CCN(C(=S)NCC(C)C)C3CCCC3)[nH]c2cc1C,"inconclusive: 10 µM [inhibitor, single point]",–
CCn1c2ccccc2c2cc(NC(=O)c3cccc(OC)c3)ccc21,inactive,–
CCOc1ccc(-c2[nH]nc3c2C(c2ccc4c(c2)OCO4)C(C#N)=C(N)O3)cc1OC (stereo unspecified),"inconclusive: 12.6 µM [inhibitor, partial curve]",–
COc1ccc(S(=O)(=O)N(CC(=O)Nc2ccc3c(c2)OCO3)c2ccccc2OC)cc1,"inconclusive: 7.94 µM [inhibitor, partial curve]",–
O=S(=O)(c1ccccc1)N1N=C(c2cccs2)CC1c1ccc(F)cc1 (stereo unspecified),inactive,–
COc1cccc(C(=O)N/N=C(/c2ccccc2)c2ccccn2)c1,"inconclusive: 12.6 µM [inhibitor, partial curve]",–
CCCN(CCC)c1ccc(CC(=O)NC(C)Cc2ccccc2)cc1 (stereo unspecified),"inconclusive: 15.8 µM [inhibitor, single point]",–
Cc1ccc(NC(=S)N(Cc2ccccc2)Cc2cccs2)c(C)c1,inactive,–
Clc1ccc(-c2nc3ccccc3n2OCc2ccccc2)cc1,"inconclusive: 12.6 µM [inhibitor, single point]",–
COC(=O)c1sccc1-c1ccc(C(=O)Nc2ccccc2)o1,"inconclusive: 10 µM [inhibitor, single point]",–
COc1cccc(Nc2nc(-c3sc(NC(=O)CC(C)C)nc3C)cs2)c1,inactive,–
Cn1cccc1C(=O)Nc1nc(-c2ccccn2)cs1,"inconclusive: 3.98 µM [inhibitor, full curve, poor fit]",–
Cc1nonc1NC(=O)CSc1nc2c(C)cccc2cc1C#N,"inconclusive: 12.6 µM [inhibitor, single point]",–
Cc1csc(-c2cnn(-c3ccccc3)c2NC(=O)c2cccc(C(F)(F)F)c2)n1,"inconclusive: 12.6 µM [inhibitor, single point]",–
COc1ccc(/C=N/NC(=O)c2nc(-c3ccccc3)n(-c3ccccc3)n2)c(O)c1,inactive,–
COc1cccc(OCC(=O)Nc2ccccc2-c2ccccc2)c1,"inconclusive: 12.6 µM [activator, single point]",–
CCOC(=O)Cn1cnc2c(cnn2-c2ccc(Cl)cc2)c1=O,inactive,–
CCc1cccc(CC)c1NC(=O)COC(=O)c1ccccc1-c1nc2ccccc2s1,"inconclusive: 10 µM [inhibitor, single point]",–
COC(=O)c1c(NC(=O)COC(=O)c2ccc(O)cc2)sc2c1CCCCC2,"inconclusive: 12.6 µM [inhibitor, partial curve]",–
O=C(NCc1ccco1)C1CCN(C(=O)c2cc3sccc3n2Cc2ccc(F)cc2)CC1,"inconclusive: 6.31 µM [inhibitor, single point]",–
CC(=O)c1ccc(Oc2cc(-c3ccccc3)nc(-c3ccccc3)n2)cc1,inactive,–
CC(C)C[C@H](NC(=O)c1nc[nH]c1C(=O)NC1CCN(C(=O)OC(C)(C)C)CC1)C(=O)OC(C)(C)C,"inconclusive: 7.94 µM [activator, partial curve]",–

Structure (SMILES),Potency,"activity change, negative = inhibition"
O=C(O)c1cc(-c2ccc(Cl)s2)nc2ccccc12,active: 6.31 µM,–
Cn1c(-c2ccc(C=O)s2)nc2c3ccccc3c3ccccc3c21,inactive,–
CCOc1ccccc1N1CCN(C(=O)CCCN2C(=O)c3cccc4cccc(c34)C2=O)CC1,"inconclusive: 25.1 µM [inhibitor, single point]",–
CC(C)c1ccc(-n2c(-c3ccccc3)c[n+]3c2CCc2ccccc2-3)cc1,active: 10 µM,–
COCCOC(=O)c1[nH]c2c(c1C)C(=O)CC(c1ccco1)C2 (stereo unspecified),"inconclusive: 10 µM [activator, single point]",–
c1ccc(C2=Nn3c(nnc3-c3ccncc3)SC2)cc1,"inconclusive: 25.1 µM [inhibitor, single point]",–
CCCCNC(=S)N(C)/N=C/c1ccc(F)cc1,inactive,–
O/N=C1\CCCc2nnc3c(c21)CCCC3,"inconclusive: 3.16 µM [inhibitor, single point]",–
Cc1cc(C)cc(C(=O)N2CC(=O)Nc3ccccc32)c1,"inconclusive: 2 µM [activator, partial curve]",–
CCOc1cc(NC(=S)NCC2CCCO2)c(OCC)cc1NC(=O)c1cccc(F)c1 (stereo unspecified),inactive,–
Cc1ccc(-c2nn3c(C)nnc3c3ccccc23)cc1S(=O)(=O)NCc1ccco1,"inconclusive: 31.6 µM [inhibitor, single point]",–
CCOc1nc(-c2ccccc2)ccc1-c1noc(COc2ccccc2)n1,inactive,–
Cc1sc(NC(=O)c2ccco2)c(CN2CCN(Cc3ccccc3)CC2)c1C,"inconclusive: 10 µM [inhibitor, single point]",–
COC(=O)c1ccc2c(=O)n3c(nc2c1)SCC(c1ccccc1)=N3,"inconclusive: 25.1 µM [inhibitor, single point]",–
CC1C(=O)C(C)C(c2ccc3c(c2)OCO3)NC1c1ccc2c(c1)OCO2 (stereo unspecified),"inconclusive: 10 µM [inhibitor, single point]",–
O=C(NCc1ccco1)N1c2ccccc2Sc2ccccc21,"inconclusive: 5.01 µM [inhibitor, partial curve, poor fit]",–
COc1cc(/C=C2/SC(=S)NC2=O)ccc1OS(=O)(=O)c1ccc(C)cc1,inactive,–
COc1ccc2cc(-c3cc(C(=O)O)c4ccccc4n3)ccc2c1,"inconclusive: 12.6 µM [inhibitor, partial curve]",–
Cc1cc(C(=O)Nc2ccc(Cl)cc2)c(C)n1-c1ccccc1,"inconclusive: 10 µM [activator, single point]",–
COC(=O)c1sccc1NC(=O)CSc1ccc(Cl)cc1,"inconclusive: 10 µM [inhibitor, single point]",–
CCc1cc(-c2n[nH]c(C)c2Oc2ccc(C(C)C)cc2)c(O)cc1O,"inconclusive: 25.1 µM [inhibitor, single point]",–
COc1ccc(-c2ccc(-c3noc(-c4ccccc4F)n3)c(OC)n2)cc1,"inconclusive: 10 µM [inhibitor, single point]",–
Cc1ccc(-n2nnc3c(=O)n(CC(=O)NCC4CCCO4)cnc32)cc1 (stereo unspecified),"inconclusive: 12.6 µM [activator, single point]",–
COC(=O)c1sc2ncn(CC(=O)NCCc3ccc(OC)c(OC)c3)c(=O)c2c1C,"inconclusive: 25.1 µM [activator, single point]",–

Structure (SMILES),Potency,"activity change, negative = inhibition"
CCCCc1ccc(NC(=S)N2CCN(c3ncccn3)CC2)cc1,inactive,–
O=C(CSCCO)Nc1ccc(C2CCCCC2)cc1,inactive,–
O=c1/c(=C\c2ccc(O)cc2)sc2nc(-c3ccccc3)c(-c3ccccc3)n12,"inconclusive: 10 µM [inhibitor, single point]",–
COc1ccc2cc(C(=O)C3CCCN(Cc4cccc(C)n4)C3)ccc2c1 (stereo unspecified),inactive,–
CCOc1ccc(CCNC(=O)c2cc3sc(Cl)cc3n2C)cc1OCC,"inconclusive: 10 µM [activator, single point]",–
O=[N+]([O-])c1cc(S(=O)(=O)Nc2ccccc2)ccc1N1CCN(c2ccc(O)cc2)CC1,inactive,–
COc1ccc(Cn2cc3c(-c4ccc(F)cc4)nnc-3c3cc(OC)c(OC)cc32)cc1,"inconclusive: 6.31 µM [inhibitor, partial curve, poor fit]",–
CCN(CC)CCN(C(=O)c1ccc(Br)s1)c1nc2cc3c(cc2s1)OCO3,"inconclusive: 12.6 µM [inhibitor, single point]",–
Cc1ccc(C(=O)N2C(=S)C(c3ccc(F)cc3)=NC23CCN(C)CC3)cc1,"inconclusive: 25.1 µM [inhibitor, single point]",–
O=C(Nc1ccc2oc(=O)ccc2c1)c1ccc(-c2ccc(Cl)cc2)o1,inactive,–
Cc1c(C(=O)N2CCC(C)CC2)sc2ncnc(N3CCN(c4ccccc4)CC3)c12,"inconclusive: 15.8 µM [inhibitor, partial curve]",–
C(=C\c1ccccc1)/CSc1nnc(-c2ccccn2)n1Cc1ccco1,–,inconclusive: 31% [activator] [at 46.1 µM]
CCCCCCCCCCCCCCCC[n+]1cccc(C(=O)N(CC)CC)c1,"inconclusive: 10 µM [inhibitor, single point]",–
Cc1ccccc1Oc1nnc(-c2cccs2)c2ccccc12,"inconclusive: 10 µM [inhibitor, single point]",–
CCC(=O)Oc1ccc(NC(=O)c2ccco2)cc1,inactive,–
Cc1cccc(C)c1OCC(=O)N(Cc1ccc(N(C)C)cc1)C1CCS(=O)(=O)C1 (stereo unspecified),inactive,–
Cc1ccc2[nH]c(=O)c(CN(Cc3ccc4c(c3)OCO4)Cc3nnnn3C3CCCC3)cc2c1,active: 12.6 µM,–
Cc1ccc(OCC(=O)N2CCN(c3ccc([N+](=O)[O-])c(N4CCOCC4)c3)CC2)cc1,"inconclusive: 10 µM [inhibitor, partial curve]",–
Cc1cn(C(=O)c2ccccc2)c(=S)n1-c1ccc(Br)cc1,"inconclusive: 12.6 µM [inhibitor, single point]",–
O=C(OC(C(=O)NCc1cccs1)c1ccc(F)cc1)c1ccco1 (stereo unspecified),"inconclusive: 25.1 µM [inhibitor, single point]",–
COc1ccc(CN2C(=O)CN(C3CCCCCC3)C(=O)C2c2ccc(F)cc2)cc1 (stereo unspecified),"inconclusive: 25.1 µM [inhibitor, single point]",–
CCNc1ccc(C(=O)O)cc1N,inactive,–
CCOc1ccc(NC(=O)c2ccccc2OCC(=O)c2ccccc2)cc1,"inconclusive: 3.98 µM [inhibitor, partial curve]",–
